Data on 19 compounds can be found in the supplement of paper PMC10037445.

± gives the standard deviation of the averaged measurements. The full ranking holds about 2,900 compounds; the median of “NF-kB SEAP reporter activity, fold change vs agonist alone” is about 0.99, and the highest 2% start at about 2.6. Some of the results follow.

The subject of assay [1] is RAW-Dual. Nature of the assay: NF-kB SEAP reporter activity, fold change vs agonist alone; higher = enhanced NF-kB activity. As to conditions: library stock concentration (final ~1000-fold dilution): 10 mM, cytotoxicity flag (confluency mask): not cytotoxic. A digest of the protocol:
(§1)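 Supernatant from RAW-Dual macrophages was read after 20 hours for IRF by QuantiLuc luminescence and for NF-κB by QuantiBlue absorbance at 620 nm. The cells (50,000 cells/well in DMEM, 384-well plates, 37 °C, 5% CO2) had received 50 nL of library stock by pin tool and, 1 h later, a PRR agonist. Reporter activity is expressed relative to agonist-alone wells as fold change, and wells were flagged cytotoxic if IncuCyte confluency was under 70% of agonist controls in both mask sets.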

Assay [2] has as its system RAW-Dual. Nature of the assay: NF-kB SEAP reporter activity, fold change vs agonist alone; cytotoxicity flag (confluency mask): not cytotoxic; higher = enhanced NF-kB activity. In short, it runs like this:
as §1

Where [3] appears, read: agonist: ODN 1826 (TLR9) 0.5 ug/mL.
The mark [4] stands for this setting: agonist: Pam2CSK4 (TLR2/6) 0.1 ug/mL.
Where [5] appears, read: agonist: Pam3CSK4 (TLR2/1) 0.1 ug/mL.

On to `COCCc1ccc(OCC(O)CNC(C)C)cc1` (stereo unspecified), for which the “NF-kB SEAP reporter activity” value in assay [1] (agonist: MPLA (TLR4) […]) turned out to be 1.07.

With `COCCc1ccc(OCC(O)CNC(C)C)cc1` (stereo unspecified) (library stock concentration (final ~1000-fold dilution): 10 mM), the “NF-kB SEAP reporter activity” value in assay [2] (agonist: LPS (TLR4) 0.1 ug/mL) came to 1.13; in assay [2] (setting [3]) it was 0.824; in assay [2] (setting [4]) it was 1.11; in assay [2] (setting [5]) it was 0.806.

As to `CCN1CCN(Cc2ccc(Nc3ncc(F)c(-c4cc(F)c5nc(C)n(C(C)C)c5c4)n3)nc2)CC1`, the “NF-kB SEAP reporter activity” value in assay [1] (agonist: Imiquimod (TLR7) […]) is 1.63; in assay [1] (agonist: MPLA (TLR4) […]) it was 2.06.

As for `CCN1CCN(Cc2ccc(Nc3ncc(F)c(-c4cc(F)c5nc(C)n(C(C)C)c5c4)n3)nc2)CC1` (library stock concentration (final ~1000-fold dilution): 10 mM), the “NF-kB SEAP reporter activity” value in assay [2] (agonist: LPS (TLR4) 0.1 ug/mL) was determined as 1.78; in assay [2] (setting [3]), 0.371; in assay [2] (setting [4]), 0.966; in assay [2] (setting [5]) it was 0.915.

In the case of `N#Cc1ccc(COCC2OC(n3c(NCc4ccc(Cl)c(Cl)c4)nc4c(N)ncnc43)C(O)C2O)cc1` (stereo unspecified) (library stock concentration (final ~1000-fold dilution): 10 mM), the “NF-kB SEAP reporter activity” value came to 0.934 in assay [2] (agonist: LPS (TLR4) 0.1 ug/mL), 1.01 in assay [2] (setting [3]), 0.742 in assay [2] (setting [4]) and 0.944 in assay [2] (setting [5]).

For `N#Cc1ccc(COCC2OC(n3c(NCc4ccc(Cl)c(Cl)c4)nc4c(N)ncnc43)C(O)C2O)cc1` (stereo unspecified), the results for the “NF-kB SEAP reporter activity” value in assay [1] (agonist: Imiquimod (TLR7) […]) and in assay [1] (agonist: MPLA (TLR4) […]) were 0.762 and 0.966, respectively.

As for `CC1OC(OC2C(=O)c3c(O)cc(O)cc3OC2c2ccc(O)cc2)C(O)C(O)C1O` (stereo unspecified) (library stock concentration (final ~1000-fold dilution): 10 mM), the “NF-kB SEAP reporter activity” value in assay [2] (agonist: LPS (TLR4) 0.1 ug/mL) came out at 1.09 ± 0.015; in assay [2] (setting [3]) it was 0.9919 ± 0.0043; in assay [2] (setting [4]), 1.06 ± 0.064; in assay [2] (setting [5]), 1.39 ± 0.41.

Take `CC1OC(OC2C(=O)c3c(O)cc(O)cc3OC2c2ccc(O)cc2)C(O)C(O)C1O` (stereo unspecified): the figures for the “NF-kB SEAP reporter activity” value in assay [1] (agonist: Imiquimod (TLR7) […]) and in assay [1] (agonist: MPLA (TLR4) […]) were 1.03 ± 0.025 and 1.04 ± 0.041, respectively.

Consider `CC(C)=CCC(O)C1=CC(=O)c2c(O)ccc(O)c2C1=O` (stereo unspecified) (library stock concentration (final ~1000-fold dilution): 10 mM), for which the “NF-kB SEAP reporter activity” value in assay [2] (agonist: LPS (TLR4) 0.1 ug/mL) was 0.34; in assay [2] (setting [3]), 0.199; in assay [2] (setting [4]), 0.0927; in assay [2] (setting [5]), 0.256.

As for `CC(C)=CCC(O)C1=CC(=O)c2c(O)ccc(O)c2C1=O` (stereo unspecified), the entries for the “NF-kB SEAP reporter activity” value in assay [1] (agonist: Imiquimod (TLR7) […]) and in assay [1] (agonist: MPLA (TLR4) […]) were 0.16 and 0.285, respectively.

For the compound `COc1ccc2c(c1)C(C(=O)N(Cc1ccc(N(C)C)cc1)c1ccc(C(C)C)cc1)CCC2` (stereo unspecified) (library stock concentration (final ~1000-fold dilution): 10 mM), the “NF-kB SEAP reporter activity” value is 1.17 in assay [2] (agonist: LPS (TLR4) 0.1 ug/mL), 0.295 in assay [2] (setting [3]), 0.481 in assay [2] (setting [4]) and 0.7 in assay [2] (setting [5]).

`COc1ccc2c(c1)C(C(=O)N(Cc1ccc(N(C)C)cc1)c1ccc(C(C)C)cc1)CCC2` (stereo unspecified): the “NF-kB SEAP reporter activity” value in assay [1] (agonist: Imiquimod (TLR7) […]) turned out to be 0.833; in assay [1] (agonist: MPLA (TLR4) […]) it was 1.04.

For `CC1CCCC(C)N1` (stereo unspecified) (library stock concentration (final ~1000-fold dilution): 10 mM), the “NF-kB SEAP reporter activity” value worked out at 0.971 in assay [2] (agonist: LPS (TLR4) 0.1 ug/mL), 0.981 in assay [2] (setting [3]), 1.06 in assay [2] (setting [4]) and 0.932 in assay [2] (setting [5]).

With `CC1CCCC(C)N1` (stereo unspecified), the “NF-kB SEAP reporter activity” value in assay [1] (agonist: MPLA (TLR4) […]) is 1.12.

With `O=C(O)CCCN1CCC(OC(c2ccc(Cl)cc2)c2ccccn2)CC1.O=S(=O)(O)c1ccccc1` (stereo unspecified), the entries for the “NF-kB SEAP reporter activity” value in assay [1] (agonist: Imiquimod (TLR7) […]) and in assay [1] (agonist: MPLA (TLR4) […]) were 1.08 and 1.03, respectively.

Consider `O=C(O)CCCN1CCC(OC(c2ccc(Cl)cc2)c2ccccn2)CC1.O=S(=O)(O)c1ccccc1` (stereo unspecified) (library stock concentration (final ~1000-fold dilution): 10 mM), for which the “NF-kB SEAP reporter activity” value in assay [2] (agonist: LPS (TLR4) 0.1 ug/mL) came to 1.04; in assay [2] (setting [3]) it was 1.06; in assay [2] (setting [4]), 1.01; in assay [2] (setting [5]) it was 1.17.

For the compound `CCOC(=O)C(CCc1ccccc1)NC(C)C(=O)N1Cc2cc(OC)c(OC)cc2CC1C(=O)O.Cl` (stereo unspecified) (library stock concentration (final ~1000-fold dilution): 10 mM), the “NF-kB SEAP reporter activity” value in assay [2] (agonist: LPS (TLR4) 0.1 ug/mL) turned out to be 0.91; in assay [2] (setting [3]), 1.01; in assay [2] (setting [4]), 1.04; in assay [2] (setting [5]), 1.06.

For the compound `CCOC(=O)C(CCc1ccccc1)NC(C)C(=O)N1Cc2cc(OC)c(OC)cc2CC1C(=O)O.Cl` (stereo unspecified), the “NF-kB SEAP reporter activity” value worked out at 0.953 in assay [1] (agonist: Imiquimod (TLR7) […]) and 1.04 in assay [1] (agonist: MPLA (TLR4) […]).

For `O.c1cnc2c(c1)ccc1cccnc12` (library stock concentration (final ~1000-fold dilution): 10 mM), the “NF-kB SEAP reporter activity” value is 2.48 in assay [2] (agonist: LPS (TLR4) 0.1 ug/mL), 1.17 in assay [2] (setting [3]), 1.44 in assay [2] (setting [4]) and 2.06 in assay [2] (setting [5]).
